In paper PMC10917850:
Results are given in words; binding and its absence hold for the method and conditions named. Binding seen in cells or lysates may run through a third protein. Some entries that bind do so weakly or less than the wild type.

Chains of the proteins cited; added tags and fusions are not shown.
UniProt Q9DAJ2: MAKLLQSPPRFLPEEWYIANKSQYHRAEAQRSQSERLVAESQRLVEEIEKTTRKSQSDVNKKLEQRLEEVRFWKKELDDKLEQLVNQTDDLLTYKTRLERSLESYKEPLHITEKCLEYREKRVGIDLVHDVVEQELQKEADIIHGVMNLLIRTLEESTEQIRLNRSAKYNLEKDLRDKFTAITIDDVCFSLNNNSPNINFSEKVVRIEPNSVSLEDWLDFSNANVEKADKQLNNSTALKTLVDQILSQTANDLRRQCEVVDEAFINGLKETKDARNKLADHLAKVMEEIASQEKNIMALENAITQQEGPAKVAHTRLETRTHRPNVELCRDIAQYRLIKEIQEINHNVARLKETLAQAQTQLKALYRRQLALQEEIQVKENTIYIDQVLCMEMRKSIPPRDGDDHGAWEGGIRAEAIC

Tests used:
[1] = target: T1, endogenous TEKT3 (mouse (endogenous in mouse testis and sperm)) (UniProt Q6X6Z7); assay: co-IP; endogenous proteins in adult mouse testis lysates (Pierce IP Lysis Buffer), WT and Tektip1-/- mice; precipitated with rabbit anti-TEKT1, -TEKT2, -TEKT3 or -TEKT4; rabbit IgG as negative control; Western blot
T1 sequence: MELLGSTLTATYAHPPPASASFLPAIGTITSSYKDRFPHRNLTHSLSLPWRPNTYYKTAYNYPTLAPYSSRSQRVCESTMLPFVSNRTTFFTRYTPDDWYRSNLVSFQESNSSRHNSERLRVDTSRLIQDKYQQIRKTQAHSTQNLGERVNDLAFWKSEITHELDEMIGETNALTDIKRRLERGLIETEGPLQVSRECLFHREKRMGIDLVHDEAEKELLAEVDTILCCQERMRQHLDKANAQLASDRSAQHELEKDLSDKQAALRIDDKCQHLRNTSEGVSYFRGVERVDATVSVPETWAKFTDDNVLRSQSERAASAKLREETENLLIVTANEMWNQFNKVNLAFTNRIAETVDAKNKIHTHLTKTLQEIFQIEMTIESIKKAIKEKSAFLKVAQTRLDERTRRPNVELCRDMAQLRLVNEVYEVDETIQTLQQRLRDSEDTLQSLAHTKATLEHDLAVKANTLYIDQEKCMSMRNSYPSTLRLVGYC

[2] = target: T2, endogenous TEKT4 (mouse (endogenous in mouse testis and sperm)) (UniProt Q149S1); assay: as above
T2 sequence: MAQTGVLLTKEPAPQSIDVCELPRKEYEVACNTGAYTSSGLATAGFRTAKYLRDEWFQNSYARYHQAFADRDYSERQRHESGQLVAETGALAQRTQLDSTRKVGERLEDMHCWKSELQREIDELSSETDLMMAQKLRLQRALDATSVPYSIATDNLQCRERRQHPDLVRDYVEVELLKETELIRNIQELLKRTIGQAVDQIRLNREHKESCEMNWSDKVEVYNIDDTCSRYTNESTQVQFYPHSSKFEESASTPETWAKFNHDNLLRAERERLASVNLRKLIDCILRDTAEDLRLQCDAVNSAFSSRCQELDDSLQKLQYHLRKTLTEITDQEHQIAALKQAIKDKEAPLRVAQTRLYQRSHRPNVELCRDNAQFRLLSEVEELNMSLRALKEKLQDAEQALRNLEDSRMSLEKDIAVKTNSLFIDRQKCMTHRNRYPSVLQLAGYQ

Which binding [1] does the source give for “endogenous TEKT1 (from UniProt Q9DAJ2 1-418)” here?
Its binding is “binds”.

What about the binding [2] of the same substance?
The binding was “binds”.
